Assay results: PubChem BioAssay AID662 (National Center for Advancing Translational Sciences (NCATS), 2007)
Where “and” joins values, the source holds several entries; their conditions need not be identical. Identical values can stand only once. In all, about 71,000 compounds went through this assay and about 1,800 (2.5%) were called active. Inconclusive means that the source gave no clear call. Such entries were picked first, then a sample of the others. Calls come from the whole dose curve; as a rule, active = well fitted activation curve with a large enough effect in the signal ratio, with a control signal flat (not every such curve was filed as active); inconclusive = small, poorly fitted or top-dose-only effect, or effect the other way, or a change in a side signal; inactive = flat fitted curve, though single readings scatter; the % refers to the signal ratio. Where the call is inconclusive, the potency comes from a doubtful curve fit.

Test: Cell signaling CRE-BLA (Fsk stim); for activity change, negative = inhibition: % of control where 0% means no effect
Settings: CHO CRE-bla reporter (cAMP response element driving beta-lactamase), forskolin EC10, beta-lactamase ratio; activity change, negative = inhibition: at 38.2 µM (top of the series) unless noted
Method in brief: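 Modulation of forskolin signalling: compounds in titration series added with EC10 NKH 477 to CHO cells carrying a CRE-driven beta-lactamase reporter, 3 h, 37C. CCF4 FRET ratio (460/530 nm, ex 405 nm) gives %activity and AC50.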
Potency is the fitted concentration of half-maximal effect; tags give direction and shape of the fitted curve.

Compound	activity change, negative = inhibition	Potency
CCn1nc(C(=O)OCC(=O)N2c3ccccc3CC2C)c2ccccc2c1=O (stereo unspecified)	inconclusive: 20.9%	–
CCn1c(=O)cc(SCC(=O)N2CCCCC2)c2ccccc21	inconclusive: 19.4%	–
O=c1c(-c2ccc(O)cc2)coc2cc(O)ccc12	inconclusive: -6.98%	–
O=C(O)CCn1cnc2ccccc2c1=O	inconclusive: -10%	–
CCCc1cc(=O)oc2cc(C)c(CN3CCCC3)c(O)c12	inactive	–
COc1cc2ccccc2cc1C(=O)Nc1cccnc1	–	inconclusive: 10 µM [rising, single point]
CN1CCCN(Cc2ccccc2C(F)(F)F)CC1	inconclusive: 3.83% [at 7.6 µM]	–
CC(C)OC(=O)CSc1nc2ncc(Cl)cc2[nH]1	–	inconclusive: 3.16 µM [rising, single point]
Cc1ccc(-n2c(SCC(N)=O)nc3c([nH]c4ccccc43)c2=O)cc1	inactive	–
Cc1ccc(Nc2nc(N3CCOCC3)c3ccccc3n2)cc1	inactive	–
COc1cccc(S(=O)(=O)Nc2ccc(C(=O)N3CCOCC3)cc2)c1	inactive	–
O=C(c1cc(-n2cnnc2)ccc1Cl)N1CCN(c2nc(-c3ccccc3)cs2)CC1	inactive	–
O=C(CCc1ccc(S(=O)(=O)N2CCOCC2)cc1)Nc1cc(Cl)ccc1N1CCOCC1	inconclusive: 0.746%	–
O=C1CC(c2ccccc2)CN1C(=O)c1ccccc1 (stereo unspecified)	–	inconclusive: 0.631 µM [rising, partial curve]
Cc1ccc(C(=O)CSc2nc3cc(S(=O)(=O)N4CCOCC4)ccc3o2)cc1	inactive	–
CCCCc1c(O)nc(SCC(=O)c2ccccc2)[nH]c1=O	inconclusive: -29.1%	–
O=C(C1CCN(S(=O)(=O)c2cccnc2)CC1)N1CCN(c2ccc(Cl)cc2)CC1	–	inconclusive: 3.16 µM [rising, single point]
Cc1nn(Cc2ccccc2Cl)c(C)c1C(=O)N1CCN(c2ccccc2)CC1	–	inconclusive: 5.01 µM [falling, single point]
COc1cc(C(=O)Nc2nnc(C)s2)cc(OC)c1OC	–	inconclusive: 10 µM [rising, partial curve]
CCC1CCCCN1C(=O)CSc1nnc(-c2ccc(Cl)s2)o1 (stereo unspecified)	inactive	–
Cc1ccnc(SCC(=O)Nc2sc3c(c2C#N)CCCC3)n1	inactive	–

Compound	activity change, negative = inhibition	Potency
CCOC(=O)c1c(NC(=O)CSc2nnc(C)c(=O)[nH]2)sc2c1CCC2	–	inconclusive: 12.6 µM [rising, single point]
CCCN1CCN(CCCNC(=O)C2CCN(c3nnc(-n4cccc4)s3)CC2)CC1	–	inconclusive: 25.1 µM [rising, single point]
CCOCCOCN(C#N)c1nc(OC)nc(N(C)C)n1	–	inconclusive: 10 µM [rising, single point]
CC(C(=O)NC1=NCCS1)(C(F)(F)F)C(F)(F)F	–	inconclusive: 10 µM [rising, partial curve]
CC(NC(=O)COC(=O)CCNC(=O)c1ccco1)C12CC3CC(CC(C3)C1)C2 (stereo unspecified)	inconclusive: 17.1%	–
CSc1ccccc1C(=O)Nc1cccc(N(C)S(C)(=O)=O)c1	inconclusive: -14.4%	–
COc1nc(-c2ccc(Cl)cc2)ccc1-c1noc(-c2ccco2)n1	inactive	–
O=c1[nH]c2ccc(S(=O)(=O)N3CCN(Cc4ccccc4)CC3)cc2[nH]c1=O	inconclusive: -6.57%	–
CCOc1ccc(N2CC(C(=O)OC)CC2=O)cc1 (stereo unspecified)	inconclusive: 19.3%	–
COc1ccc(OCCNC(=O)c2ccccc2OCC(=O)N2CCCCC2)cc1	inactive	–
O=C(CCN1C(=O)C2C3C=CC(C3)C2C1=O)N1CCN(c2ccccc2F)CC1 (stereo unspecified)	–	inconclusive: 1.26 µM [rising, partial curve]
NC(=O)C1CCN(C(=O)C2c3ccccc3C(=O)N3CCc4ccccc4C23)CC1 (stereo unspecified)	inconclusive: -9.89%	–
O=C(NCc1cccnc1)C(C(=O)c1ccc(F)cc1)n1ccccc1=O (stereo unspecified)	inconclusive: -3.82%	–
O=C1c2ccccc2C(=O)N1c1nc(-c2cccs2)cs1	inactive	–
COc1ccc(Oc2ncc3nc(-c4ccc(OC)cc4)c(=O)n(C4CC4)c3n2)cc1	–	inconclusive: 3.98 µM [rising, full curve]
COc1c(C)c2c(c(O)c1C/C=C(\C)CCC(=O)O)C(=O)OC2	inconclusive: -23.3% and inconclusive: -24.9%	–
Cc1noc(C)c1COC(=O)Cn1c(C)nc2ccccc21	–	inconclusive: 3.16 µM [falling, single point]
Cc1ccnc(NC(=O)CCC(=O)N(CC(=O)NC2CCCCC2)Cc2ccc3c(c2)OCO3)c1	inactive	–
O=C(Nc1nnc(-c2ccccc2)o1)NC1CCCCC1	inactive	–
CCOC(=O)NCc1cc(-c2nn(C)c(=O)c3ccccc23)ccc1C	–	inconclusive: 5.01 µM [rising, partial curve]
